Measurements reported in the supplement of paper PMC9927326.

Tests used:
Experiment in all cases: CLSI broth microdilution.
flucytosine = compound: Nc1[nH]c(=O)ncc1F [flucytosine]
voriconazole = compound: C[C@@H](c1ncncc1F)[C@](O)(Cn1cncn1)c1ccc(F)cc1F [voriconazole]
itraconazole = compound: CCC(C)n1ncn(-c2ccc(N3CCN(c4ccc(OCC5COC(Cn6cncn6)(c6ccc(Cl)cc6Cl)O5)cc4)CC3)cc2)c1=O [itraconazole]
anidulafungin = compound: CCCCCOc1ccc(-c2ccc(-c3ccc(C(=O)N[C@H]4C[C@@H](O)[C@@H](O)NC(=O)[C@@H]5[C@@H](O)[C@@H](C)CN5C(=O)[C@H]([C@@H](C)O)NC(=O)[C@H]([C@H](O)[C@@H](O)c5ccc(O)cc5)NC(=O)[C@@H]5C[C@@H](O)CN5C(=O)[C@H]([C@@H](C)O)NC4=O)cc3)cc2)cc1 [anidulafungin]
posaconazole = compound: CC[C@@H]([C@H](C)O)n1ncn(-c2ccc(N3CCN(c4ccc(OC[C@@H]5CO[C@@](Cn6cncn6)(c6ccc(F)cc6F)C5)cc4)CC3)cc2)c1=O [posaconazole]
amphotericin B = compound: C[C@@H]1[C@H](O)[C@@H](C)/C=C/C=C/C=C/C=C/C=C/C=C/C=C/[C@H](O[C@@H]2O[C@H](C)[C@@H](O)[C@H](N)[C@@H]2O)C[C@@H]2O[C@](O)(C[C@@H](O)C[C@@H](O)[C@H](O)CC[C@@H](O)C[C@@H](O)CC(=O)O[C@H]1C)C[C@H](O)[C@H]2C(=O)O [amphotericin B]
fluconazole = compound: OC(Cn1cncn1)(Cn1cncn1)c1ccc(F)cc1F [fluconazole]
micafungin = compound: CCCCCOc1ccc(-c2cc(-c3ccc(C(=O)N[C@H]4C[C@@H](O)[C@@H](O)NC(=O)[C@@H]5[C@@H](O)[C@@H](C)CN5C(=O)[C@H]([C@H](O)CC(N)=O)NC(=O)[C@H]([C@H](O)[C@@H](O)c5ccc(O)c(OS(=O)(=O)O)c5)NC(=O)[C@@H]5C[C@@H](O)CN5C(=O)[C@H]([C@@H](C)O)NC4=O)cc3)no2)cc1 [micafungin]
caspofungin = compound: CC[C@H](C)C[C@H](C)CCCCCCCCC(=O)N[C@H]1C[C@@H](O)[C@@H](NCCN)NC(=O)[C@@H]2[C@@H](O)CCN2C(=O)[C@H]([C@H](O)CCN)NC(=O)[C@H]([C@H](O)[C@@H](O)c2ccc(O)cc2)NC(=O)[C@@H]2C[C@@H](O)CN2C(=O)[C@H]([C@@H](C)O)NC1=O [caspofungin]

Test System	MIC (flucytosine)	MIC (voriconazole)	MIC (itraconazole)	MIC (anidulafungin)	MIC (posaconazole)	MIC (amphotericin B)	MIC (fluconazole)	MIC (micafungin)	MIC (caspofungin)
Candida albicans isolate 100 (Erg11p: V488I,E266D, Fur1p: WT, Tac1p: 896S,M170V,S108N)	≤ 0.06 mg/L [S]	0.015 mg/L [S]	0.03 mg/L [S]	0.03 mg/L [S]	0.03 mg/L [S]	0.25 mg/L [S]	0.5 mg/L [S]	≤ 0.008 mg/L [S]	0.03 mg/L [S]
Candida albicans isolate 202 (Erg11p: E266D, Fur1p: WT, Tac1p: I558V,A377V,F189S,N174D,M170I,K87N)	≤ 0.06 mg/L [S]	≤ 0.008 mg/L [S]	≤ 0.015 mg/L [S]	≤ 0.015 mg/L [S]	≤ 0.008 mg/L [S]	0.25 mg/L [S]	0.25 mg/L [S]	0.015 mg/L [S]	0.015 mg/L [S]
Candida albicans isolate 170 (Erg11p: G465S,Y132H, Fur1p: R101C, Tac1p: WT)	0.5 mg/L [S]	0.12 mg/L [S]	0.06 mg/L [S]	≤ 0.015 mg/L [S]	0.015 mg/L [S]	0.5 mg/L [S]	1 mg/L [S]	0.03 mg/L [S]	0.03 mg/L [S]
Candida albicans isolate 215 (Erg11p: WT, Fur1p: WT, Tac1p: I558V,A377V,F189S,N174D,M170I,K87N)	≤ 0.06 mg/L [S]	≤ 0.008 mg/L [S]	≤ 0.015 mg/L [S]	≤ 0.015 mg/L [S]	0.015 mg/L [S]	0.5 mg/L [S]	0.25 mg/L [S]	0.015 mg/L [S]	0.03 mg/L [S]
Candida albicans isolate 250 (Erg11p: V488I,E266D, Fur1p: WT, Tac1p: N896S,I558V,A377V,F189S,N174D,M170I,K87N)	≤ 0.06 mg/L [S]	≤ 0.008 mg/L [S]	0.03 mg/L [S]	0.06 mg/L [S]	0.015 mg/L [S]	0.25 mg/L [S]	0.25 mg/L [S]	0.015 mg/L [S]	0.06 mg/L [S]
Candida albicans isolate 36 (Erg11p: V488I,E266D, Fur1p: WT, Tac1p: N896S,M170V,S108N)	≤ 0.06 mg/L [S]	≤ 0.008 mg/L [S]	≤ 0.015 mg/L [S]	0.03 mg/L [S]	0.015 mg/L [S]	0.5 mg/L [S]	≤ 0.12 mg/L [S]	≤ 0.008 mg/L [S]	0.03 mg/L [S]
Candida albicans isolate 266 (Erg11p: WT, Fur1p: R101C, Tac1p: WT)	0.25 mg/L [S]	≤ 0.008 mg/L [S]	≤ 0.015 mg/L [S]	≤ 0.015 mg/L [S]	0.015 mg/L [S]	0.5 mg/L [S]	0.25 mg/L [S]	0.015 mg/L [S]	0.015 mg/L [S]
Candida albicans isolate 187 (Erg11p: V488I,E266D, Fur1p: G159V, Tac1p: N896S,A377V,F189S,N174D,M170I,K87N)	≤ 0.06 mg/L [S]	≤ 0.008 mg/L [S]	≤ 0.015 mg/L [S]	0.06 mg/L [S]	0.015 mg/L [S]	0.25 mg/L [S]	0.5 mg/L [S]	0.015 mg/L [S]	0.06 mg/L [S]
Candida albicans isolate 312 (Erg11p: Y132H,T123I, Fur1p: R101C, Tac1p: WT)	0.25 mg/L [S]	0.25 µg/mL	0.12 mg/L [S]	≤ 0.015 mg/L [S]	0.03 mg/L [S]	0.5 mg/L [S]	4 µg/mL	0.015 mg/L [S]	0.015 mg/L [S]
Candida albicans isolate 267 (Erg11p: E266D, Fur1p: WT, Tac1p: I558V,A377V,F189S,N174D,M170I,K87N)	≤ 0.06 mg/L [S]	≤ 0.008 mg/L [S]	0.03 mg/L [S]	0.06 mg/L [S]	0.015 mg/L [S]	0.5 mg/L [S]	0.5 mg/L [S]	≤ 0.008 mg/L [S]	0.015 mg/L [S]
Candida albicans isolate 208 (Erg11p: V488I,E266D, Fur1p: WT, Tac1p: N896S)	≤ 0.06 mg/L [S]	≤ 0.008 mg/L [S]	≤ 0.015 mg/L [S]	≤ 0.015 mg/L [S]	0.015 mg/L [S]	0.25 mg/L [S]	0.25 mg/L [S]	≤ 0.008 mg/L [S]	0.015 mg/L [S]

MIC of clinical C. albicans isolates, CLSI broth microdilution (ranges and time not stated); higher = less susceptible. Call: susceptible or wild type [S] / resistant or non-wild type [R] by CLSI breakpoints or epidemiological cut-offs; intermediate and dose-dependent carry no call here (the paper groups them with resistant). '<=' and '>=' mark each drug's lowest and highest value, inferred; the source prints them plain. Isolates are numbered anew.
